According to patent US20100240033A1 (INSTITUT NATIONAL DE LA SANTE ET DE LA RECHERCHE MEDICAL …, published 2010):

Molecular target: T1, human prolactin receptor mutant I146L (human, UniProt P16471 25-622)
T1 sequence: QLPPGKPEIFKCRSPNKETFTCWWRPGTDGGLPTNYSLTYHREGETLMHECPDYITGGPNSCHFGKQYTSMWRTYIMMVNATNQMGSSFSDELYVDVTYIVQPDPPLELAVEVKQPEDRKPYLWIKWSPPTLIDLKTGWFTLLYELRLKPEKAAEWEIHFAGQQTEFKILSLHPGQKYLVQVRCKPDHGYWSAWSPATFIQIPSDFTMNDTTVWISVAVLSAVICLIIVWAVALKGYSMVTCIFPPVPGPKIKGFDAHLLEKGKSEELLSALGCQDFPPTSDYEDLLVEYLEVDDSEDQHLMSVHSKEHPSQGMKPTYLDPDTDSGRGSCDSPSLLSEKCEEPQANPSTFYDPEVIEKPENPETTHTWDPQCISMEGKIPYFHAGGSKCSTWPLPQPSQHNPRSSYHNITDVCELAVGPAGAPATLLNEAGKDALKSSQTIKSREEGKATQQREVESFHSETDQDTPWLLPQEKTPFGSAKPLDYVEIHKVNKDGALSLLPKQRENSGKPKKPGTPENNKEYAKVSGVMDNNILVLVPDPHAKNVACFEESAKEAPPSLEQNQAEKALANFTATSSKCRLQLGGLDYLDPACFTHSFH
Assay: cell-based or functional assay

fold stimulation of LHRE-luciferase activity induced by PRL (stable HEK 293 clones, 1 ug/ml PRL): 4 fold
B1: recombinant human prolactin (hPRL) (ligand, UniProt P01236 29-227, looked up)
chain: LPICPGGAARCQVTLRDLFDRAVVLSHYIHNLSSEMFSEFDKRYTHGRGFITKAINSCHTSSLATPEDKEQAQQMNQKDFLSLIVSILRSWNEPLYHLVTEVRGMQEAPEAILSKAVEIEEQTKRLLEGMELIVSQVHPETKENEIYPVWSGLPSLQMADEESRLSAYYNLLHCLRRDSHKIDNYLKLLKCRIIHNNNC
modifications: tracer form iodinated (125I, Iodogen method); unlabeled hPRL used as competitor
notes: Recombinant hPRL from bacteria; also called WT hPRL; [125I]-hPRL
